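Compound exposure: 48 hours, 5 concentrations, 96-well plates. GI50: concentration for 50% inhibition of growth.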 Some entries of the source have several records that differ or are many. Only these are listed. There may be further records. For some assays here: A record mostly stands for its own series of concentrations, which the source does not state; a value can be the end of its range. For some assays here: Values given together are repeated measurements across runs, samples, wells, individuals or studies. Marks in square brackets tell the records apart. A, B and so on number the origins entry by entry.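 The concentration for full growth arrest is given as TGI.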 *1 amine or outer side, *2 acyl side, *3 side chain or, on linkers, in order; H or OH if unused. Where a SMILES comes first, the peptide text is derived from it. Bridges are numbered along the chain shown (N, C = ends). Roman numbers before positions name the chains, in order. [ ]: non-standard residue; d: D form. Actinocin(9to1) = Cc1c2oc3c(C)ccc(C(=O)[*:1])c3nc-2c(C(=O)[*:2])c(N)c1=O; NMeY = CN[CH](Cc1ccc(O)cc1)C(=O)O; Sar = CNCC(=O)O
Experiments:
Assay in all cases: NCI-60 cell line screen, 48 h
RPMI-8226 leukemia = system: RPMI-8226 leukemia
T-47D breast = system: T-47D breast
M14 melanoma = system: M14 melanoma
A549 NSCLC = system: A549 NSCLC
BT-549 breast = system: BT-549 breast
MDA-MB-435 = system: MDA-MB-435
SF-295 CNS = system: SF-295 CNS
MOLT-4 leukemia = system: MOLT-4 leukemia
SK-MEL-5 melanoma = system: SK-MEL-5 melanoma
CCRF-CEM leukemia = system: CCRF-CEM leukemia
HCT-116 colon = system: HCT-116 colon
NCI-H226 lung = system: NCI-H226 lung
COLO 205 colon = system: COLO 205 colon
OVCAR-3 ovarian = system: OVCAR-3 ovarian
HS 578T breast = system: HS 578T breast
SK-MEL-28 melanoma = system: SK-MEL-28 melanoma
OVCAR-8 ovarian = system: OVCAR-8 ovarian
LOX IMVI melanoma = system: LOX IMVI melanoma
PC-3 prostate = system: PC-3 prostate
K-562 leukemia = system: K-562 leukemia
786-0 renal = system: 786-0 renal
MDA-MB-231 breast = system: MDA-MB-231 breast
HT29 colon = system: HT29 colon
DU-145 prostate = system: DU-145 prostate
TK-10 renal = system: TK-10 renal
NCI-H460 lung = system: NCI-H460 lung
SR leukemia = system: SR leukemia
HOP-92 NSCLC = system: HOP-92 NSCLC
SW-620 colon = system: SW-620 colon
ACHN renal = system: ACHN renal
CAKI-1 renal = system: CAKI-1 renal
MALME-3M melanoma = system: MALME-3M melanoma
HOP-62 NSCLC = system: HOP-62 NSCLC
U251 CNS = system: U251 CNS
A498 renal = system: A498 renal

For `C[N+](C)(C)CC1CCCc2ccccc2C1=O` (centres undefined), the TGI (RPMI-8226 leukemia) was 6.16 µM and 43.6 nM and the TGI (T-47D breast) was 3.56 µM and 36.8 µM.

With `COC(=O)C[C@](O)(CCCC(C)(C)O)C(=O)O[C@@H]1C(OC)=C[C@]23CCCN2CCc2cc4c(cc2[C@H]13)OCO4` the TGI (M14 melanoma) was 10 µM [sample A] and 59.9 nM [sample B], the TGI (A549 NSCLC) was 1.24 µM [sample A, mean of 8 tests] and 108 nM [sample B, mean of 2 tests] and the TGI (BT-549 breast) was 18.8 µM [sample A] and 81.2 nM [sample B]. For the same compound, the TGI (MDA-MB-435) was > 25 µM [sample A] and 126 nM [sample B], the TGI (SF-295 CNS) was 922 nM [sample A] and 89.7 nM [sample B] and the TGI (MOLT-4 leukemia) was 71.6 nM [sample A] and > 58.7 µM [sample B]. The TGI (SK-MEL-5 melanoma) was 587 nM [sample A] and 40 nM [sample B], the TGI (CCRF-CEM leukemia) was 207 nM [sample A] and > 100 µM [sample B] and the TGI (HCT-116 colon) was 927 nM [sample A, mean of 8 tests] and 60.9 nM [sample B, mean of 2 tests]. For the same compound, the TGI (NCI-H226 lung) was 472 nM [sample A] and 42.4 nM [sample B], the TGI (COLO 205 colon) was 1.14 µM [sample A] and 114 nM [sample B] and the TGI (OVCAR-3 ovarian) was 1.05 µM [sample A, mean of 8 tests] and 91.2 nM [sample B, mean of 2 tests]. For the same compound, the TGI (HS 578T breast) was 13 µM [sample A] and 89.1 nM [sample B], the TGI (SK-MEL-28 melanoma) was 646 nM [sample A] and 63.8 nM [sample B] and the TGI (OVCAR-8 ovarian) was 1.05 µM [sample A] and 101 nM [sample B]. For the same compound, the TGI (LOX IMVI melanoma) was 438 nM [sample A] and 35.5 nM [sample B], the TGI (T-47D breast) was 14 µM [sample A] and 228 nM [sample B] and the TGI (PC-3 prostate) was > 25 µM [sample A] and 227 nM [sample B]. The TGI (K-562 leukemia) was 1.57 µM [sample A] and > 100 µM [sample B], the TGI (786-0 renal) was 3.92 µM [sample A] and 168 nM [sample B] and the TGI (MDA-MB-231 breast) was 9.19 µM [sample A] and 412 nM [sample B]. For the same compound, the TGI (HT29 colon) was 827 nM [sample A] and 60.5 nM [sample B], the TGI (DU-145 prostate) was 3.75 µM [sample A] and 212 nM [sample B] and the TGI (TK-10 renal) was 9.54 µM [sample A] and 198 nM [sample B].

With `COc1cccc2c1C(=O)c1c(O)c3c(c(O)c1C2=O)C[C@@](O)(C(=O)CO)C[C@@H]3OC1CC(N)CC(C)O1` (some centres undefined) the TGI (A549 NSCLC) was 279 nM and 8.6 µM, the GI50 (MOLT-4 leukemia) was 60.3 nM [mean of 6 tests] and 1.98 nM [mean of 7 tests] and the TGI (MOLT-4 leukemia) was 2 µM [mean of 6 tests] and 23.9 nM [mean of 7 tests]. For the same compound, the GI50 (NCI-H460 lung) was 5.06 nM, 20 nM [mean of 4 tests] and 1.21 nM [mean of 7 tests] and the TGI (HS 578T breast) was 317 nM and 4.33 µM.

In the case of `Cc1c2oc3c(C)ccc(C(=O)NC4C(=O)NC(C(C)C)C(=O)N5CCCC5C(=O)N(C)CC(=O)N(C)C(Cc5ccc(O)cc5)C(=O)OC4C)c3nc-2c(C(=O)NC2C(=O)NC(C(C)C)C(=O)N3CCCC3C(=O)N(C)CC(=O)N(C)C(Cc3ccc(O)cc3)C(=O)OC2C)c(N)c1=O` (centres undefined) (I: TVP[Sar][NMeY] / II: TVP[Sar][NMeY]; ester I:1-I:C, II:1-II:C; linker I:N-II:N via Actinocin(9to1); configuration not given here), the GI50 (SR leukemia) is reported as 3.18 nM [sample A, mean of 2 tests] and 0.306 nM [sample B, mean of 2 tests], the GI50 (HOP-92 NSCLC) is reported as 132 nM [sample A, mean of 2 tests] and 11.6 nM [sample B, mean of 2 tests] and the GI50 (SW-620 colon) is reported as 89.5 nM [sample A, mean of 2 tests] and 4.59 nM [sample B, mean of 2 tests]. The TGI (OVCAR-3 ovarian) was 617 nM [sample A, mean of 2 tests] and 38.3 nM [sample B, mean of 2 tests], the GI50 (ACHN renal) was 139 nM [sample A, mean of 2 tests] and 3.7 nM [sample B, mean of 2 tests] and the GI50 (OVCAR-8 ovarian) was 120 nM [sample A, mean of 2 tests] and 3.62 nM [sample B, mean of 2 tests]. For the same compound, the GI50 (CAKI-1 renal) was > 368 nM [sample A, mean of 2 tests] and 21.8 nM [sample B, mean of 2 tests], the GI50 (MALME-3M melanoma) was 57.3 nM [sample A, 1 test] and 3.33 nM [sample B, 1 test] and the GI50 (HOP-62 NSCLC) was 100 nM [sample A, 1 test] and 3.15 nM [sample B, 1 test]. The TGI (HOP-62 NSCLC) was 772 nM [sample A, 1 test] and 49.4 nM [sample B, 1 test], the GI50 (786-0 renal) was 42.7 nM [sample A, mean of 2 tests] and 2.92 nM [sample B, mean of 2 tests] and the GI50 (U251 CNS) was 7.72 nM [sample A, mean of 2 tests] and 0.464 nM [sample B, 1 test]. The GI50 (A498 renal) was 181 nM [sample A, mean of 2 tests] and 10.7 nM [sample B, mean of 2 tests].

From PubChem BioAssay (NCI)
